This note sets out measurements from publication PMC12527917, “Regulation of kinesin-2 motility by its β-hairpin motif” (Nature Structural & Molecular Biology, 2025).

Holding throughout (conditions): both partners purified
The target of one test is T1, Kif3B^ΔC39 (human, UniProt O15066 1-708).
T1 construct: Kif3B, human, 39 amino acids truncated from the C terminus; also called Kif3B^Δ39; source: Sf9 (baculovirus), coexpressed with Kif3A^ΔC103, purified (IgG Sepharose, TEV elution, SEC); not shown: ZZ, N-terminal, cleaved
T1 sequence (looked up): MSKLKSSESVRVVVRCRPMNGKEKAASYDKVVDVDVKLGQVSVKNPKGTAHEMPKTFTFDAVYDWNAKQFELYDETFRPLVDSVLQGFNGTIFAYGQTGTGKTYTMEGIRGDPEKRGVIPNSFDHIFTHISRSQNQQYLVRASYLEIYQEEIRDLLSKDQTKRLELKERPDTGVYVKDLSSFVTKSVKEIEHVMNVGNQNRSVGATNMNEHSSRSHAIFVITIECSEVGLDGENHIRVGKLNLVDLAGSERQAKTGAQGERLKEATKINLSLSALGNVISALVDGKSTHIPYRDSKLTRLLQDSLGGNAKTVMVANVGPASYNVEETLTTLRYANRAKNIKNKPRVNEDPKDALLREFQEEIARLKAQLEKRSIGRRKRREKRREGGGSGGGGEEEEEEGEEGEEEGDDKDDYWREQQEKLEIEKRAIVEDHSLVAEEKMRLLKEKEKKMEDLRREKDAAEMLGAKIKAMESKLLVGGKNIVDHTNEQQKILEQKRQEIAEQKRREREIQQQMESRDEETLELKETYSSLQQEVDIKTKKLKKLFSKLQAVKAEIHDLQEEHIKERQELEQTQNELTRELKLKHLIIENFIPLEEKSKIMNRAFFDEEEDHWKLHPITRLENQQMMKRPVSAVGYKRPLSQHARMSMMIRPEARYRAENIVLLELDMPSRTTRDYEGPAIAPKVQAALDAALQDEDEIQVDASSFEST
The test can be described thus: SEC; motor subunits coexpressed in Sf9, purified through the ZZ tag of Kif3B/C on IgG Sepharose, TEV elution, Superose 6 Increase 3.2/300 in buffer A (50 mM Tris-HCl pH 7.5, 150 mM K-acetate, 2 mM Mg-acetate, 5% glycerol, 1 mM DTT, 0.2 mM Mg-ATP); SDS-PAGE of peak fraction.

The next test has as its target T2, Kif3B^ΔC90 (human, UniProt O15066 1-657).
T2 construct: Kif3B, human, 90 amino acids truncated from the C terminus; also called Kif3B^Δ90; source: Sf9 (baculovirus), coexpressed with Kif3A^ΔC103, purified (IgG Sepharose, TEV elution, SEC); not shown: ZZ, N-terminal, cleaved
T2 sequence (looked up): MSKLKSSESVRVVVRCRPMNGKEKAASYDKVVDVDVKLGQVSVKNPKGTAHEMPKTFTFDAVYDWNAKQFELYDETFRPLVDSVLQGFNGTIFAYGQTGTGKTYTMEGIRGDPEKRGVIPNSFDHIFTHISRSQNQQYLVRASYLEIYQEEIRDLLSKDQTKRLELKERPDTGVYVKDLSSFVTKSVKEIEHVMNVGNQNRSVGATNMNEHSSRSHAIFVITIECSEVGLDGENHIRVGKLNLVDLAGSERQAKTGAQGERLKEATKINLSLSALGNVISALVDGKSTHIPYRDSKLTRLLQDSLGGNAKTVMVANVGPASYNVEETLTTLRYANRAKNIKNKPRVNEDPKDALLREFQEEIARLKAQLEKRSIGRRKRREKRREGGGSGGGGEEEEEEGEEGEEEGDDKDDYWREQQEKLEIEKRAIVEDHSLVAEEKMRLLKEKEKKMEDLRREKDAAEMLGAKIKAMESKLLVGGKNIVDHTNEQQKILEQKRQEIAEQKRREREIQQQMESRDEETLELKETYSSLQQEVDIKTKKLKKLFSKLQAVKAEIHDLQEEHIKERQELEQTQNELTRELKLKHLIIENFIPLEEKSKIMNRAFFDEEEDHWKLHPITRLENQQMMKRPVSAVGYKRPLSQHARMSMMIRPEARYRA
Described as above.

The next test deals with T3, Kif3B^ΔC114 (human, UniProt O15066 1-633).
T3 construct: Kif3B, human, 114 amino acids truncated from the C terminus; also called Kif3B^Δ114; source: Sf9 (baculovirus), coexpressed with Kif3A^ΔC103, purified (IgG Sepharose, TEV elution, SEC); not shown: ZZ, N-terminal, cleaved
T3 sequence (looked up): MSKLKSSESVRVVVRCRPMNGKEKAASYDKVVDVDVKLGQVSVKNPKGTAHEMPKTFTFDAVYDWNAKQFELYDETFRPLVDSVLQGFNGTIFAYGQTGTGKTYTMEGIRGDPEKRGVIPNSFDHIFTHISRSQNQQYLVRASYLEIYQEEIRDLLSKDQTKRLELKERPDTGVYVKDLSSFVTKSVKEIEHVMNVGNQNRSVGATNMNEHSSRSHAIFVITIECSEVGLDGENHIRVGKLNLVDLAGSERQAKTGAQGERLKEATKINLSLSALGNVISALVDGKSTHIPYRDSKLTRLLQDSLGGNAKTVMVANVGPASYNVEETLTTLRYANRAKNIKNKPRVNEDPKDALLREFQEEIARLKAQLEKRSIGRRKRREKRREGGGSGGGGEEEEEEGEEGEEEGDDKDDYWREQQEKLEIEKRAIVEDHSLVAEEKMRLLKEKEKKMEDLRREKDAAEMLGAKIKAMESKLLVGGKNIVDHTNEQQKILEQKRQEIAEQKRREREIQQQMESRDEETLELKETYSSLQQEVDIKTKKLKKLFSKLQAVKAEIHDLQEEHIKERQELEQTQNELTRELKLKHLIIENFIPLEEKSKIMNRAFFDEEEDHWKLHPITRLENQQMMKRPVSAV
The test is described as above.

In test [1] the target is T4, Kif3B (human kinesin-2 motor subunit), full length (human, UniProt O15066 1-747).
T4 construct: Kif3B, human, synthesised gene, full-length subunit; source: Sf9 (baculovirus), coexpressed with Kif3A, purified (IgG Sepharose, TEV elution, SEC); not shown: ZZ, N-terminal, cleaved
T4 sequence (looked up): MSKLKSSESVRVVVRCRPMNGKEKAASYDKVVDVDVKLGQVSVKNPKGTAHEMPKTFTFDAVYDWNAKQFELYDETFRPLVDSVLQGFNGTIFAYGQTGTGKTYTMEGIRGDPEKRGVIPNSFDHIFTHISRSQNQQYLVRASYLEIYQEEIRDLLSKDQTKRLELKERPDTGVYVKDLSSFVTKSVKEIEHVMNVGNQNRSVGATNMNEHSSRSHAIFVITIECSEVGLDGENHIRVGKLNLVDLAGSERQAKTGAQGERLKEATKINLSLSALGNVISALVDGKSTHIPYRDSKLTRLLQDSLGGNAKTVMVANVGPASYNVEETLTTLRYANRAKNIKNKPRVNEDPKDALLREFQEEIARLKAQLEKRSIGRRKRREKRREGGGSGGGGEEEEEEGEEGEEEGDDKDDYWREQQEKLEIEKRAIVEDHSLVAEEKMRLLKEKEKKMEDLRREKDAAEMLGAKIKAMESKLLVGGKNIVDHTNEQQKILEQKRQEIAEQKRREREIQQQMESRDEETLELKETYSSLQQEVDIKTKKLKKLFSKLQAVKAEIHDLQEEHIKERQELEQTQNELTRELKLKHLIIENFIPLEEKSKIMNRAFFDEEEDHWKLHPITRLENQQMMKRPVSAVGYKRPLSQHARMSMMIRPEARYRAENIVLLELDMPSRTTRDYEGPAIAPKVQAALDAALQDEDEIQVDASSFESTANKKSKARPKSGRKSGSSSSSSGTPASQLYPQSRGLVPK
The description is as above.

Test [2] has as its target microtubules polymerized from porcine tubulin (porcine, UniProt P02550; Q767L7). Briefly: single-molecule TIRF microtubule binding and motility; biotinylated Alexa Fluor 488 microtubules held on neutravidin; 0.15–40 nM Alexa-Fluor-647-labelled motor in buffer B (50 mM Tris-HCl pH 8.0, 50 mM KCl, 2 mM MgCl2, 1 mM EGTA) with 1 mM Mg-ATP, 25 °C.

B1: Kif3A^ΔC103 (domain or fragment)
chain: not shown
notes: Kif3A, human, 103 amino acids truncated from the C terminus; also called Kif3A^Δ103; source: Sf9 (baculovirus), coexpressed with Kif3B constructs, purified (IgG Sepharose, TEV elution, SEC); not shown: SNAPf, C-terminal, kept
Turning to B1, the binding result in the test with Kif3B^ΔC39, with Kif3B^ΔC90 and with Kif3B^ΔC114 was “binds” each time.

B2: Kif3A^ΔC59 (domain or fragment)
chain: not shown
notes: Kif3A, human, 59 amino acids truncated from the C terminus; also called Kif3A truncated by 59 C-terminal amino acids; source: Sf9 (baculovirus), coexpressed with Kif3B, purified (IgG Sepharose, TEV elution, SEC); not shown: SNAPf, C-terminal, kept
B2: the binding result in test [1] is given as “binds”.

B3: Kif3A^ΔC89–Kif3B heterodimer (ΔInt1) (complex)
chain 1: [about 600 residues omitted]
chain 2: T4 sequence (looked up)
notes: Kif3A, human, 89 amino acids truncated from the C terminus (within the β-hairpin motif); Kif3B, human, synthesised gene, full-length subunit; also called Kif3A^Δ89B; source: Sf9 (baculovirus), coexpressed, purified (IgG Sepharose, TEV elution, SEC); not shown: SNAPf, C-terminal, kept; ZZ, N-terminal, cleaved
With B3, in test [2], the landing rate was roughly 0.6 μm^−1 nM^−1 min^−1.

B4: Kif3A^ΔC103–Kif3B heterodimer (complex)
chain 1: [about 600 residues omitted]
chain 2: T4 sequence (looked up)
notes: Kif3A, human, 103 amino acids truncated from the C terminus (beyond the β-hairpin motif); Kif3B, human, synthesised gene, full-length subunit; SNAPf on Kif3A labelled with Alexa Fluor 647; also called Kif3A^Δ103B; source: Sf9 (baculovirus), coexpressed, purified (IgG Sepharose, TEV elution, SEC); not shown: SNAPf, C-terminal, kept; ZZ, N-terminal, cleaved
Turning to B4, the landing rate in test [2] is roughly 0.6 μm^−1 nM^−1 min^−1.

B5: Kif3A^ΔC103–Kif3B^ΔC90 heterodimer (complex)
chain 1: [about 600 residues omitted]
chain 2: T2 sequence (looked up)
notes: Kif3A, human, 103 amino acids truncated from the C terminus; Kif3B, human, 90 amino acids truncated from the C terminus; SNAPf on Kif3A labelled with Alexa Fluor 647; also called Kif3A^Δ103B^Δ90; source: Sf9 (baculovirus), coexpressed, purified (IgG Sepharose, TEV elution, SEC); not shown: SNAPf, C-terminal, kept; ZZ, N-terminal, cleaved
Turning to B5, the landing rate in test [2] was roughly 3.2 μm^−1 nM^−1 min^−1.

B6: Kif3A^ΔC38 (domain or fragment)
chain: not shown
notes: Kif3A, human, 38 amino acids truncated from the C terminus; also called Kif3A truncated by 38 C-terminal amino acids; source: Sf9 (baculovirus), coexpressed with Kif3B, purified (IgG Sepharose, TEV elution, SEC); not shown: SNAPf, C-terminal, kept
Turning to B6, the binding result in test [1] is “binds”.

B7: Kif3A^ΔC89 (domain or fragment)
chain: not shown
notes: Kif3A, human, 89 amino acids truncated from the C terminus; also called Kif3A^Δ89; source: Sf9 (baculovirus), coexpressed with Kif3B, purified (IgG Sepharose, TEV elution, SEC); not shown: SNAPf, C-terminal, kept
Take B7: in test [1], the binding result is given as “binds”.
